For the assay, the target named is T1, human TROP2 (Homo sapiens, UniProt P09758).
T1 sequence (P09758 27-323): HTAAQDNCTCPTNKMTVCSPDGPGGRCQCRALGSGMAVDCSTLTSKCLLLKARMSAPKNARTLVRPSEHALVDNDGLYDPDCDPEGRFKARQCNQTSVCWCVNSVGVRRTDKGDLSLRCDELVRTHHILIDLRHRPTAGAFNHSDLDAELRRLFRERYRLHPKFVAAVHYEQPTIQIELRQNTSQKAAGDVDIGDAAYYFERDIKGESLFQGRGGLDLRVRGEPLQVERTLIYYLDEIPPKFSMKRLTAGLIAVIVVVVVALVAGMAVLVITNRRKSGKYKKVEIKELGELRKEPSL
Briefly: SPR affinity ranking of humanized antibodies (Table 8C). Format: binding.

B1: HC3/LC1 (antibody)
heavy: QVQLVQSGAEVKKPGASVKVSCKASGYTFTDYSINWVRQAPGQRLEWMGVISTYYGDASYNQKFKGRVTITRDTSASTAYMELSSLRSEDTAVYYCARYGDGYNQFDYWGQGTLVTVSS[human IgG1 constant region cut from this listing]
light: DIVMTQSPDSLAVSLGERATINCRVSESVDSYGNNFMHWYQQKPGQPPKLLIYRASNLESGVPDRFSGSGSGTDFTLTISSLQAEDVAVYYCQQSYEDPYTFGQGTKLEIKRTVAAPSVFIFPPSDEQLKSGTASVVCLLNNFYPREAKVQWKVDNALQSGNSQESVTEQDSKDSTYSLSSTLTLSKADYEKHKVYACEVTHQGLSSPVTKSFNRGEC
For B1, the “Ka” value was 1.65e+06 M⁻¹ s⁻¹, the “Kd (1/s)” value was 0.00011 s⁻¹ and the “Rmax (RU)” value came to 53.3 RU.

B2: HC4/LC3: humanized anti-TROP2 antibody, heavy chain SEQ ID NO: 55, light chain SEQ ID NO: 60 (antibody)
heavy: QVQLVQSGAEVKKPGSSVKVSCKASGYTFTDYSINWVRQAPGQGLEWMGVISTYYGDASYNQKFKGRVTITADESTSTAYMELSSLRSEDTAVYYCARYGDGYNQFDYWGQGTLVTVSS[human IgG1 constant region cut from this listing]
light: DIVMTQSPLSLPVTPGEPASISCRVSESVDSYGNNFMHWYLQKPGQSPQLLIYRASNLESGVPDRFSGSGSGTDFTLKISRVEAEDVGVYYCQQSYEDPYTFGGGTKVEIKRTVAAPSVFIFPPSDEQLKSGTASVVCLLNNFYPREAKVQWKVDNALQSGNSQESVTEQDSKDSTYSLSSTLTLSKADYEKHKVYACEVTHQGLSSPVTKSFNRGEC
In the case of B2, the “Ka” value was determined as 1.95e+06 M⁻¹ s⁻¹, the “Kd (1/s)” value turned out to be 0.000178 s⁻¹ and the “Rmax (RU)” value is 29.6 RU.

B3: HC2/LC3: humanized anti-TROP2 antibody, heavy chain SEQ ID NO: 53, light chain SEQ ID NO: 60 (antibody)
heavy: QVQLVQSGAEVKKPGASVKVSCKASGYTFTDYSINWVRQAPGQGLEWMGVISTYYGDASYNQKFKGRVTMTRDTSTSTVYMELSSLRSEDTAVYYCARYGDGYNQFDYWGQGTLVTVSS[human IgG1 constant region cut from this listing]
light: DIVMTQSPLSLPVTPGEPASISCRVSESVDSYGNNFMHWYLQKPGQSPQLLIYRASNLESGVPDRFSGSGSGTDFTLKISRVEAEDVGVYYCQQSYEDPYTFGGGTKVEIKRTVAAPSVFIFPPSDEQLKSGTASVVCLLNNFYPREAKVQWKVDNALQSGNSQESVTEQDSKDSTYSLSSTLTLSKADYEKHKVYACEVTHQGLSSPVTKSFNRGEC
In the case of B3, the “Ka” value amounted to 1.36e+06 M⁻¹ s⁻¹, the “Kd (1/s)” value is 0.000141 s⁻¹ and the “Rmax (RU)” value turned out to be 35.4 RU.

B4: HC1/LC3: humanized anti-TROP2 antibody, heavy chain SEQ ID NO: 52, light chain SEQ ID NO: 60 (antibody)
heavy: QVQLVQSGAEVKKPGASVKVSCKASGYTFTDYSINWVRQAPGQGLEWMGVISTYYGDASYNQKFKGRVTMTTDTSTSTAYMELRSLRSDDTAVYYCARYGDGYNQFDYWGQGTMVTVSS[human IgG1 constant region cut from this listing]
light: DIVMTQSPLSLPVTPGEPASISCRVSESVDSYGNNFMHWYLQKPGQSPQLLIYRASNLESGVPDRFSGSGSGTDFTLKISRVEAEDVGVYYCQQSYEDPYTFGGGTKVEIKRTVAAPSVFIFPPSDEQLKSGTASVVCLLNNFYPREAKVQWKVDNALQSGNSQESVTEQDSKDSTYSLSSTLTLSKADYEKHKVYACEVTHQGLSSPVTKSFNRGEC
For B4, the “Ka” value came to 1.62e+06 M⁻¹ s⁻¹, the “Kd (1/s)” value is 0.000196 s⁻¹ and the “Rmax (RU)” value amounted to 35.1 RU.

B5: HC2/LC4: humanized anti-TROP2 antibody, heavy chain SEQ ID NO: 53, light chain SEQ ID NO: 61 (antibody)
heavy: QVQLVQSGAEVKKPGASVKVSCKASGYTFTDYSINWVRQAPGQGLEWMGVISTYYGDASYNQKFKGRVTMTRDTSTSTVYMELSSLRSEDTAVYYCARYGDGYNQFDYWGQGTLVTVSS[human IgG1 constant region cut from this listing]
light: EIVLTQSPATLSLSPGERATLSCRVSESVDSYGNNFMHWYQQKPGQAPRLLIYRASNLESGIPARFSGSGSGTDFTLTISSLEPEDFAVYYCQQSYEDPYTFGGGTKVEIKRTVAAPSVFIFPPSDEQLKSGTASVVCLLNNFYPREAKVQWKVDNALQSGNSQESVTEQDSKDSTYSLSSTLTLSKADYEKHKVYACEVTHQGLSSPVTKSFNRGEC
As to B5, the “Ka” value turned out to be 1.46e+06 M⁻¹ s⁻¹, the “Kd (1/s)” value is 0.00014 s⁻¹ and the “Rmax (RU)” value was 41.3 RU.

B6: HC3/LC3: humanized anti-TROP2 antibody, heavy chain SEQ ID NO: 54, light chain SEQ ID NO: 60 (antibody)
heavy: QVQLVQSGAEVKKPGASVKVSCKASGYTFTDYSINWVRQAPGQRLEWMGVISTYYGDASYNQKFKGRVTITRDTSASTAYMELSSLRSEDTAVYYCARYGDGYNQFDYWGQGTLVTVSS[human IgG1 constant region cut from this listing]
light: DIVMTQSPLSLPVTPGEPASISCRVSESVDSYGNNFMHWYLQKPGQSPQLLIYRASNLESGVPDRFSGSGSGTDFTLKISRVEAEDVGVYYCQQSYEDPYTFGGGTKVEIKRTVAAPSVFIFPPSDEQLKSGTASVVCLLNNFYPREAKVQWKVDNALQSGNSQESVTEQDSKDSTYSLSSTLTLSKADYEKHKVYACEVTHQGLSSPVTKSFNRGEC
For the molecule B6, the “Ka” value is 1.49e+06 M⁻¹ s⁻¹, the “Kd (1/s)” value came out at 0.000159 s⁻¹ and the “Rmax (RU)” value stood at 35.2 RU.

B7: HC3/LC5 (antibody)
heavy: QVQLVQSGAEVKKPGASVKVSCKASGYTFTDYSINWVRQAPGQRLEWMGVISTYYGDASYNQKFKGRVTITRDTSASTAYMELSSLRSEDTAVYYCARYGDGYNQFDYWGQGTLVTVSS[human IgG1 constant region cut from this listing]
light: DIQMTQSPSSLSASVGDRVTITCRVSESVDSYGNNFMHWYQQKPGKAPKLLIYRASNLESGVPSRFSGSGSGTDFTFTISSLQPEDIATYYCQQSYEDPYTFGGGTKLEIKRTVAAPSVFIFPPSDEQLKSGTASVVCLLNNFYPREAKVQWKVDNALQSGNSQESVTEQDSKDSTYSLSSTLTLSKADYEKHKVYACEVTHQGLSSPVTKSFNRGEC
As to B7, the “Ka” value was found to be 1.32e+06 M⁻¹ s⁻¹, the “Kd (1/s)” value stood at 0.000151 s⁻¹ and the “Rmax (RU)” value was determined as 62.8 RU.

B8: HC1/LC4: humanized anti-TROP2 antibody, heavy chain SEQ ID NO: 52, light chain SEQ ID NO: 61 (antibody)
heavy: QVQLVQSGAEVKKPGASVKVSCKASGYTFTDYSINWVRQAPGQGLEWMGVISTYYGDASYNQKFKGRVTMTTDTSTSTAYMELRSLRSDDTAVYYCARYGDGYNQFDYWGQGTMVTVSS[human IgG1 constant region cut from this listing]
light: EIVLTQSPATLSLSPGERATLSCRVSESVDSYGNNFMHWYQQKPGQAPRLLIYRASNLESGIPARFSGSGSGTDFTLTISSLEPEDFAVYYCQQSYEDPYTFGGGTKVEIKRTVAAPSVFIFPPSDEQLKSGTASVVCLLNNFYPREAKVQWKVDNALQSGNSQESVTEQDSKDSTYSLSSTLTLSKADYEKHKVYACEVTHQGLSSPVTKSFNRGEC
For the molecule B8, the “Ka” value amounted to 1.38e+06 M⁻¹ s⁻¹, the “Kd (1/s)” value was 0.000126 s⁻¹ and the “Rmax (RU)” value is on record as 45 RU.

Source of the values: patent US12458818B2, “Anti-trophoblast cell surface antigen 2 (TROP2) antibodies and antibody drug conjugates comprising same” (CSPC MEGALITH BIOPHARMACEUTICAL CO., LTD., priority 2019, dated 2025).
